In patent publication US20110269811A1, “INHIBITORS OF SEMICARBAZIDE-SENSITIVE AMINE OXIDASE (SSAO) AND VAP-1 MEDIATED ADHESION USEFUL FOR TREATMENT AND PREVENTION OF DISEASES” (priority 2006, published 2011):

Tested on: Na^+ channel (site 2)
Conditions: 10 uM Concentration of Compound I-1-Z
Procedure: For Table 4 below, the specific ligand binding to the receptors is defined as the difference between the total binding and the nonspecific binding determined in the presence of an excess of unlabelled ligand. The results are expressed as a percent inhibition of control specific binding obtained in the presence of Compound I-1-Z. The IC50 values (concentration causing a half-maximal inhibition of control specific binding) and Hill coefficients (nH) were determined by non-linear regression analysis of the competition curves using Hill equation curve fitting. The inhibition constants (Ki) were calculated from the Cheng Prusoff equation (Ki=IC50/(1+(L/KD)), where L=concentration of radioligand in the assay, and KD=affinity of the radioligand for the receptor). In each experiment, the respective reference compound was tested concurrently with Compound I-1-Z in order to assess the assay suitability.

COc1ccc(C/C(=C/F)CN)cc1.Cl [Compound I-1-Z, (Z)-3-Fluoro-2-(4-methoxybenzyl)-allylamine hydrochloride]
Mean Value, percent inhibition of control specific binding: Na^+ channel (site 2): 9%
